Measurements: the supplement of paper PMC4604168 (melanoma cell lines)
This is one part of the list. Single values are uncertain, as repeats are few or missing.

Columns and labels:
Experiment in all cases: cell count relative to DMSO control; melanoma cells; higher = more viable cells
Settings in all cases: library dose: standard library concentration; 72 h
G361 = test system: G361
IPC-298 = test system: IPC-298
IST-MEL1 = test system: IST-MEL1
LB2518-MEL = test system: LB2518-MEL
LOXIMVI = test system: LOXIMVI
MEL-HO = test system: MEL-HO
MZ2-MEL = test system: MZ2-MEL
MeWo = test system: MeWo
RPMI7951 = test system: RPMI7951
RVH-421 = test system: RVH-421
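Further: cells treated in 1,536-well plates, then fixed and DAPI-stained, with nuclei counted from automated high-throughput microscope images.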

| Structure (SMILES) | cell count (G361) | cell count (IPC-298) | cell count (IST-MEL1) | cell count (LB2518-MEL) | cell count (LOXIMVI) | cell count (MEL-HO) | cell count (MZ2-MEL) | cell count (MeWo) | cell count (RPMI7951) | cell count (RVH-421) |
| --- | --- | --- | --- | --- | --- | --- | --- | --- | --- | --- |
| NC1(c2ccc(-c3nc4ccn5c(=O)[nH]nc5c4cc3-c3ccccc3)cc2)CCC1 + COc1ccc2c(c1)CCC1C2CCC2(C)C(NCCCCCCN3C(=O)C=CC3=O)CCC12 [U73122] (first compound 2 µM, partner dose 2 µM) | 96.3% | 70.4% | 93% | 77.7% | 80.3% | 67.8% | 90.2% | 54.8% | 46.1% | 101% |
| NC1(c2ccc(-c3nc4ccn5c(=O)[nH]nc5c4cc3-c3ccccc3)cc2)CCC1 + COc1ccc(COc2ccc(Cc3cnc(N)nc3N)cc2OC)cc1 [GW2580] (first compound 2 µM, partner dose 5 µM) | 84.5% | 85.1% | 82.9% | 83.5% | 97.4% | 72.5% | 87.6% | 65.9% | 76.6% | 81.5% |
| CS(=O)(=O)c1ccc(C(=O)Nc2ccc(Cl)c(-c3ccccn3)c2)c(Cl)c1 [vismodegib] + Nc1cccc2c1CN(C1CCC(=O)NC1=O)C2=O [lenalidomide] (first compound 5 µM, partner dose 5 µM) | 92.6% | 107% | 88.5% | 129% | 110% | 100% | 105% | 108% | 126% | 87% |
| CN(c1ncccc1CNc1nc(Nc2ccc3c(c2)CC(=O)N3)ncc1C(F)(F)F)S(C)(=O)=O + CS(=O)(=O)CCNCc1ccc(-c2ccc3ncnc(Nc4ccc(OCc5cccc(F)c5)c(Cl)c4)c3c2)o1 [lapatinib] (first compound 0.4 µM, partner dose 4 µM) | 48.2% | 89.3% | 79.3% | 93.7% | 120% | 73.9% | 49.5% | 70.3% | 57.5% | 86.3% |
| C=C(c1ccc(C(=O)O)cc1)c1cc2c(cc1C)C(C)(C)CCC2(C)C [Bexarotene] + COc1ccc(-c2ccc3c(N4CCOCC4)nc(N4C[C@@H](C)O[C@@H](C)C4)nc3n2)cc1CO [KU0063794] (first compound 10 µM, partner dose 0.1 µM) | 89.5% | 74.6% | 82.5% | 78.4% | 122% | 82.7% | 75.2% | 81.2% | 64.1% | 68.6% |
| CS(=O)(=O)c1ccc(C(=O)Nc2ccc(Cl)c(-c3ccccn3)c2)c(Cl)c1 [vismodegib] + COc1cc(N2CCC(N3CCN(C)CC3)CC2)ccc1Nc1ncc(Cl)c(Nc2ccccc2S(=O)(=O)C(C)C)n1 [NVP-TAE684] (first compound 5 µM, partner dose 0.4 µM) | 93.4% | 103% | 104% | 108% | 213% | 93.1% | 116% | 62.4% | 104% | 111% |
| CN(c1ncccc1CNc1nc(Nc2ccc3c(c2)CC(=O)N3)ncc1C(F)(F)F)S(C)(=O)=O + CC(C)CCN1c2nc(Nc3cc(F)c(O)c(F)c3)ncc2N(C)C(=O)C1C [BID1870] (first compound 0.4 µM, partner dose 1 µM) | 57.7% | 66.7% | 77% | 85.2% | 97.1% | 67.5% | 74.8% | 73.7% | 75.4% | 68.3% |
| C=C(c1ccc(C(=O)O)cc1)c1cc2c(cc1C)C(C)(C)CCC2(C)C [Bexarotene] + CN(C)S(=O)(=O)c1ccc2c(c1)/C(=C/c1cc3c([nH]1)CCCC3)C(=O)N2 [SU6656] (first compound 10 µM, partner dose 2 µM) | 66.6% | 89.8% | 92.5% | 82.4% | 132% | 87.9% | 121% | 89.3% | 58.4% | 90.1% |
| CCCS(=O)(=O)Nc1ccc(F)c(C(=O)c2c[nH]c3ncc(Cl)cc23)c1F + O=C(CCCCCCC(=O)Nc1ccccc1)NO [vorinostat] (first compound 0.4 µM, partner dose 0.4 µM) | 63.8% | 83.6% | 82.1% | 93.6% | 98.7% | 86.1% | 75.9% | 85.2% | 79.7% | 86.6% |
| CCCS(=O)(=O)Nc1ccc(F)c(C(=O)c2c[nH]c3ncc(Cl)cc23)c1F + Cn1cncc1[C@@](N)(c1ccc(Cl)cc1)c1ccc2c(c1)c(-c1cccc(Cl)c1)cc(=O)n2C [tipifarnib] (first compound 0.4 µM, partner dose 0.05 µM) | 54.8% | 98.4% | 76.2% | 79.4% | 73.5% | 76.2% | 106% | 83.4% | 83.5% | 66% |
| C=C(c1ccc(C(=O)O)cc1)c1cc2c(cc1C)C(C)(C)CCC2(C)C [Bexarotene] + Cn1c(Nc2ccc(C(F)(F)F)cc2)nc2cc(Oc3ccnc(-c4ncc(C(F)(F)F)[nH]4)c3)ccc21 [CHIR265] (first compound 10 µM, partner dose 0.4 µM) | 40% | 45.3% | 73.7% | 40.6% | 110% | 54.5% | 73% | 76.2% | 47.7% | 293% |
| CS(=O)(=O)c1ccc(C(=O)Nc2ccc(Cl)c(-c3ccccn3)c2)c(Cl)c1 [vismodegib] + O=C(Nc1ccccc1)c1cc([N+](=O)[O-])ccc1Cl [GW9662] (first compound 5 µM, partner dose 10 µM) | 107% | 107% | 98.1% | 79.8% | 79.5% | 105% | 99.3% | 79.8% | 102% | 85.5% |
| C=C(c1ccc(C(=O)O)cc1)c1cc2c(cc1C)C(C)(C)CCC2(C)C [Bexarotene] + Cn1nnc2c(C(N)=O)ncn2c1=O [temozolomide] (first compound 10 µM, partner dose 10 µM) | 68.4% | 108% | 69.2% | 151% | 69.9% | 76.1% | 92.3% | 103% | 84.7% | 71.6% |
| CN(c1ncccc1CNc1nc(Nc2ccc3c(c2)CC(=O)N3)ncc1C(F)(F)F)S(C)(=O)=O + Cc1ccc(NC(=O)c2cccc(N(C)C)c2)cc1NC(=O)c1ccc(O)cc1 [ZM336372] (first compound 0.4 µM, partner dose 10 µM) | 64.6% | 95.3% | 42.1% | 72.6% | 79% | 73.4% | 80% | 88.6% | 38.7% | 72.9% |
| NC1(c2ccc(-c3nc4ccn5c(=O)[nH]nc5c4cc3-c3ccccc3)cc2)CCC1 + N#Cc1c(O)c2c(-c3ccc(-c4ccccc4O)cc3)csc2[nH]c1=O [A769662] (first compound 2 µM, partner dose 10 µM) | 69% | 88.4% | 67.7% | 85.3% | 73.4% | 62.6% | 95.8% | 70.1% | 77.5% | 84% |
| C=C(c1ccc(C(=O)O)cc1)c1cc2c(cc1C)C(C)(C)CCC2(C)C [Bexarotene] + O=C(Nc1cccc(Cl)c1)Nc1ncc(CCNc2ncnc3ccsc23)s1 [SNS314] (first compound 10 µM, partner dose 0.004 µM) | 80.2% | 77.3% | 54.8% | 94.3% | 74.1% | 80.6% | 83.4% | 70.3% | 52.2% | 76.4% |
| CS(=O)(=O)c1ccc(C(=O)Nc2ccc(Cl)c(-c3ccccn3)c2)c(Cl)c1 [vismodegib] + C[C@@H](Oc1cc(-c2cnn(C3CCNCC3)c2)cnc1N)c1c(Cl)ccc(F)c1Cl [Crizotinib] (first compound 5 µM, partner dose 1 µM) | 94.7% | 96.3% | 96% | 75.8% | 132% | 107% | 84.1% | 77.5% | 85.8% | 87% |
| C=C(c1ccc(C(=O)O)cc1)c1cc2c(cc1C)C(C)(C)CCC2(C)C [Bexarotene] + COc1cc(Nc2ncc(F)c(Nc3ccc4c(n3)NC(=O)C(C)(C)O4)n2)cc(OC)c1OC [Tamatinib] (first compound 10 µM, partner dose 2 µM) | 73.5% | 91.1% | 66.6% | 97.3% | 31.2% | 81.7% | 80.1% | 69.6% | 48.1% | 106% |
| CN(c1ncccc1CNc1nc(Nc2ccc3c(c2)CC(=O)N3)ncc1C(F)(F)F)S(C)(=O)=O + Cc1cc(N2CCOCC2)cc2[nH]c(-c3c(NC[C@@H](O)c4cccc(Cl)c4)cc[nH]c3=O)nc12 [BMS536924] (first compound 0.4 µM, partner dose 1 µM) | 76.6% | 111% | 91% | 89.3% | 86.5% | 95.1% | 102% | 77.1% | 73.9% | 108% |
| CCCS(=O)(=O)Nc1ccc(F)c(C(=O)c2c[nH]c3ncc(Cl)cc23)c1F + Clc1ccc(Nc2nnc(Cc3ccncc3)c3ccccc23)cc1 [vatalanib] (first compound 0.4 µM, partner dose 10 µM) | 79.7% | 56.4% | 71.5% | 80.5% | 88.4% | 58.3% | 65.3% | 67.1% | 59.5% | 45.8% |
| CN(c1ncccc1CNc1nc(Nc2ccc3c(c2)CC(=O)N3)ncc1C(F)(F)F)S(C)(=O)=O + COc1ccc(COc2ccc(Cc3cnc(N)nc3N)cc2OC)cc1 [GW2580] (first compound 0.4 µM, partner dose 5 µM) | 74.5% | 86.8% | 101% | 87.7% | 191% | 92.9% | 68.8% | 68.7% | 87.5% | 110% |
| CN(c1ncccc1CNc1nc(Nc2ccc3c(c2)CC(=O)N3)ncc1C(F)(F)F)S(C)(=O)=O + Clc1ccc(Nc2nnc(Cc3ccncc3)c3ccccc23)cc1 [vatalanib] (first compound 0.4 µM, partner dose 10 µM) | 49.4% | 55.1% | 65.8% | 50.2% | 81.9% | 60.7% | 41.1% | 65.9% | 52.4% | 78.4% |
| NC1(c2ccc(-c3nc4ccn5c(=O)[nH]nc5c4cc3-c3ccccc3)cc2)CCC1 + CC(=O)c1c(C)c2cnc(Nc3ccc(N4CCNCC4)cn3)nc2n(C2CCCC2)c1=O [palbociclib] (first compound 2 µM, partner dose 0.2 µM) | 63.9% | 61.3% | 54.2% | 60.7% | 76.4% | 56.4% | 61.3% | 42% | 54.8% | 64.2% |
